{"source": "the supplement of paper PMC12067230", "note": "Single values of this set are uncertain.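 Further: [psi-pin-] Saccharomyces cerevisiae expressing SupN fusions, induced by 100 µM Cu2SO4, selected 7 d at 30 °C without adenine and uracil, scored by deep sequencing of output versus input.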", "data": [{"test": "amyloid nucleation score relative to library mode (yeast Sup35 reporter selection) (log enrichment difference); higher = more amyloid nucleation", "settings": "random library (experiment): 1;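 active = nucleation score significantly above 0 at FDR 0.05; inactive = not significantly above 0 or absent from output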", "values": [{"sequence": "EASNCFAIRHFENKFAVETLICGM", "amyloid nucleation score": "inactive"}, {"sequence": "EASNCFAIRHFENKFAVETLICRG", "amyloid nucleation score": "inactive"}, {"sequence": "EASNCFAIRHFENKFAVETLICLWSAERKASETA", "amyloid nucleation score": "inactive"}, {"sequence": "EASNCFAIRHFENKFAVETLICLVPISLDIRRQE", "amyloid nucleation score": 7.21}, {"sequence": "EASNCFAIRHFENKFAVETLICNQPKSAKKVYGR", "amyloid nucleation score": "inactive"}, {"sequence": "EASNCFAIRHFENKFAVETLICGARRDARSAGPA", "amyloid nucleation score": "inactive"}, {"sequence": "EASNCFAIRHFENKFAVETLICVAPGGSGCRPAW", "amyloid nucleation score": "inactive"}, {"sequence": "EASNCFAIRHFENKFAVETLICEKLVDLNLRCFV", "amyloid nucleation score": 5.94}, {"sequence": "EASNCFAIRHFENKFAVETLICETHNTCGAAWEL", "amyloid nucleation score": "inactive"}, {"sequence": "EASNCFAIRHFENKFAVETLICLRGRPTVSPARR", "amyloid nucleation score": "inactive"}, {"sequence": "EASNCFAIRHFENKFAVETLICRGTGWRELEGWR", "amyloid nucleation score": 0.703}, {"sequence": "EASNCFAIRHFENKFAVETLICFKMVPWIWVTVT", "amyloid nucleation score": "inactive"}, {"sequence": "EASNCFAIRHFENKFAVETLICQTMCAVPGDHDG", "amyloid nucleation score": "inactive"}, {"sequence": "EASNCFAIRHFENKFAVETLICDRCVIVCPLYVQ", "amyloid nucleation score": 6.81}, {"sequence": "EASNCFAIRHFENKFAVETLICLLQCLTMLSRKE", "amyloid nucleation score": "inactive"}, {"sequence": "EASNCFAIRHFENKFAVETLICEVQWGVASTPAR", "amyloid nucleation score": "inactive"}, {"sequence": "EASNCFAIRHFENKFAVETLICQYLVEE", "amyloid nucleation score": "inactive"}, {"sequence": "EASNCFAIRHFENKFAVETLICTSRIHRRESVQT", "amyloid nucleation score": 1.05}, {"sequence": "EASNCFAIRHFENKFAVETLICIKWLSRTSLGIA", "amyloid nucleation score": -0.0755}, {"sequence": "EASNCFAIRHFENKFAVETLICECC", "amyloid nucleation score": "inactive"}, {"sequence": "EASNCFAIRHFENKFAVETLICFSPIDLTRALCW", "amyloid nucleation score": 4.89}, {"sequence": "EASNCFAIRHFENKFAVETLICCFNDVLIRAHLG", "amyloid nucleation score": "inactive"}, {"sequence": "EASNCFAIRHFENKFAVETLICRKPTWNRCVRVL", "amyloid nucleation score": "inactive"}, {"sequence": "EASNCFAIRHFENKFAVETLICGLYTWKRVAQ", "amyloid nucleation score": 1.78}, {"sequence": "EASNCFAIRHFENKFAVETLICLHLWCG", "amyloid nucleation score": "inactive"}, {"sequence": "EASNCFAIRHFENKFAVETLICPLLGRKDLAPRR", "amyloid nucleation score": 5.58}, {"sequence": "EASNCFAIRHFENKFAVETLICTGCPNRCENGPT", "amyloid nucleation score": "inactive"}, {"sequence": "EASNCFAIRHFENKFAVETLICLHHLKPLSGRYR", "amyloid nucleation score": 0.243}, {"sequence": "EASNCFAIRHFENKFAVETLICPFTGSISSKESG", "amyloid nucleation score": 0.218}, {"sequence": "EASNCFAIRHFENKFAVETLICFSSVQTSVRVPS", "amyloid nucleation score": 3.3}, {"sequence": "EASNCFAIRHFENKFAVETLICYRLACGRTMLFR", "amyloid nucleation score": "inactive"}, {"sequence": "EASNCFAIRHFENKFAVETLICGFGMSSAGHVSA", "amyloid nucleation score": "inactive"}, {"sequence": "EASNCFAIRHFENKFAVETLICFSGPMRELRHEA", "amyloid nucleation score": "inactive"}, {"sequence": "EASNCFAIRHFENKFAVETLICKSVRVVATRVAG", "amyloid nucleation score": "inactive"}, {"sequence": "EASNCFAIRHFENKFAVETLICCFKVL", "amyloid nucleation score": 5.3}, {"sequence": "EASNCFAIRHFENKFAVETLICGKMKPLTLARVV", "amyloid nucleation score": "inactive"}, {"sequence": "EASNCFAIRHFENKFAVETLICRATRFVLAGSVC", "amyloid nucleation score": "inactive"}, {"sequence": "EASNCFAIRHFENKFAVETLICLYLRYRGPACNI", "amyloid nucleation score": "inactive"}]}, {"test": "amyloid nucleation score relative to library mode (yeast Sup35 reporter selection) (log enrichment difference); higher = more amyloid nucleation", "settings": "random library (experiment): 2", "values": [{"sequence": "EASNCFAIRHFENKFAVETLICNSFRL", "amyloid nucleation score": 4.68}, {"sequence": "EASNCFAIRHFENKFAVETLICYDVML", "amyloid nucleation score": 3.48}, {"sequence": "EASNCFAIRHFENKFAVETLICIVVLPRLFNTWR", "amyloid nucleation score": -0.0488}, {"sequence": "EASNCFAIRHFENKFAVETLICVSSSFYVGWGRY", "amyloid nucleation score": "inactive"}, {"sequence": "EASNCFAIRHFENKFAVETLICIWSMSELWYTQW", "amyloid nucleation score": "inactive"}, {"sequence": "EASNCFAIRHFENKFAVETLICLRMEAEASSVWV", "amyloid nucleation score": "inactive"}, {"sequence": "EASNCFAIRHFENKFAVETLICLFLMCSLFLCVV", "amyloid nucleation score": 4.05}, {"sequence": "EASNCFAIRHFENKFAVETLICEDSWL", "amyloid nucleation score": "inactive"}, {"sequence": "EASNCFAIRHFENKFAVETLICTYSIHYCSSRLC", "amyloid nucleation score": "inactive"}, {"sequence": "EASNCFAIRHFENKFAVETLICWRSCPGGPWASW", "amyloid nucleation score": 1.98}, {"sequence": "EASNCFAIRHFENKFAVETLICMLNSVYRRLLVQ", "amyloid nucleation score": "inactive"}, {"sequence": "EASNCFAIRHFENKFAVETLICVVV", "amyloid nucleation score": 7.33}, {"sequence": "EASNCFAIRHFENKFAVETLICRWHG", "amyloid nucleation score": "inactive"}, {"sequence": "EASNCFAIRHFENKFAVETLICDDANKLCARLDD", "amyloid nucleation score": 0}, {"sequence": "EASNCFAIRHFENKFAVETLICRMVKSRRILCYN", "amyloid nucleation score": "inactive"}, {"sequence": "EASNCFAIRHFENKFAVETLICRLW", "amyloid nucleation score": "inactive"}, {"sequence": "EASNCFAIRHFENKFAVETLICAFINTRLGLD", "amyloid nucleation score": "inactive"}, {"sequence": "EASNCFAIRHFENKFAVETLICLIDYILLGSNSR", "amyloid nucleation score": "inactive"}, {"sequence": "EASNCFAIRHFENKFAVETLICVYAVLKDRKQVW", "amyloid nucleation score": 2.67}, {"sequence": "EASNCFAIRHFENKFAVETLICLDLV", "amyloid nucleation score": "inactive"}, {"sequence": "EASNCFAIRHFENKFAVETLICEDMSYIW", "amyloid nucleation score": "inactive"}, {"sequence": "EASNCFAIRHFENKFAVETLICIVPIGAGGWNTL", "amyloid nucleation score": 7.3}, {"sequence": "EASNCFAIRHFENKFAVETLICLCRRVILIRSMR", "amyloid nucleation score": "inactive"}, {"sequence": "EASNCFAIRHFENKFAVETLICKDSSEFSIFERE", "amyloid nucleation score": "inactive"}, {"sequence": "EASNCFAIRHFENKFAVETLICYCKRTRGIPAIT", "amyloid nucleation score": "inactive"}, {"sequence": "EASNCFAIRHFENKFAVETLICKYMRGRGFSCCA", "amyloid nucleation score": "inactive"}, {"sequence": "EASNCFAIRHFENKFAVETLICYFHWDLLNVCGK", "amyloid nucleation score": 3.74}, {"sequence": "EASNCFAIRHFENKFAVETLICFLGYYYT", "amyloid nucleation score": "inactive"}, {"sequence": "EASNCFAIRHFENKFAVETLICAVMWPFDIFR", "amyloid nucleation score": 5.26}, {"sequence": "EASNCFAIRHFENKFAVETLICLDKRPTLQQWDR", "amyloid nucleation score": "inactive"}, {"sequence": "EASNCFAIRHFENKFAVETLICCLLPLWRRKVQS", "amyloid nucleation score": 6.77}, {"sequence": "EASNCFAIRHFENKFAVETLICRLFTIGTGVSER", "amyloid nucleation score": 4.2}, {"sequence": "EASNCFAIRHFENKFAVETLICIHFSPYGMGIMV", "amyloid nucleation score": "inactive"}, {"sequence": "EASNCFAIRHFENKFAVETLICVLISFKL", "amyloid nucleation score": "inactive"}, {"sequence": "EASNCFAIRHFENKFAVETLICGPFVNLRRRAGG", "amyloid nucleation score": 5.33}, {"sequence": "EASNCFAIRHFENKFAVETLICMTSDRQLKNSRS", "amyloid nucleation score": 0.393}]}, {"test": "amyloid nucleation score relative to library mode (yeast Sup35 reporter selection) (log enrichment difference); higher = more amyloid nucleation; sequences are the first 22 residues of the Bri2 peptide extended by up to 12 random residues", "settings": "random library (experiment): 3", "values": [{"sequence": "EASNCFAIRHFENKFAVETLICCENAKINFCRDP", "amyloid nucleation score": 9.6}, {"sequence": "EASNCFAIRHFENKFAVETLICTGI", "amyloid nucleation score": "inactive"}, {"sequence": "EASNCFAIRHFENKFAVETLICHASQMER", "amyloid nucleation score": "inactive"}, {"sequence": "EASNCFAIRHFENKFAVETLICIMEPSLADPVLR", "amyloid nucleation score": "inactive"}, {"sequence": "EASNCFAIRHFENKFAVETLICMRGMLMIGGKSE", "amyloid nucleation score": "inactive"}, {"sequence": "EASNCFAIRHFENKFAVETLICGVPVDYAVRSFR", "amyloid nucleation score": "inactive"}, {"sequence": "EASNCFAIRHFENKFAVETLICLFV", "amyloid nucleation score": "inactive"}, {"sequence": "EASNCFAIRHFENKFAVETLICQQWEGCPVANRR", "amyloid nucleation score": "inactive"}, {"sequence": "EASNCFAIRHFENKFAVETLICARLAWIASEVT", "amyloid nucleation score": "inactive"}, {"sequence": "EASNCFAIRHFENKFAVETLICKGSDHQCDQTLL", "amyloid nucleation score": "inactive"}, {"sequence": "EASNCFAIRHFENKFAVETLICAASMYWECKVPG", "amyloid nucleation score": "inactive"}, {"sequence": "EASNCFAIRHFENKFAVETLICTLTFRRGIDRFR", "amyloid nucleation score": "inactive"}, {"sequence": "EASNCFAIRHFENKFAVETLICERDRLLMCTTRR", "amyloid nucleation score": "inactive"}, {"sequence": "EASNCFAIRHFENKFAVETLICGYMSRWDISVCV", "amyloid nucleation score": "inactive"}, {"sequence": "EASNCFAIRHFENKFAVETLICYYRVLIGPHFWV", "amyloid nucleation score": "inactive"}, {"sequence": "EASNCFAIRHFENKFAVETLICLGERGQPGCRMG", "amyloid nucleation score": 3.42}, {"sequence": "EASNCFAIRHFENKFAVETLICRFWQGFWHENSA", "amyloid nucleation score": "inactive"}, {"sequence": "EASNCFAIRHFENKFAVETLICGTMMSMCGDGRE", "amyloid nucleation score": 7.14}, {"sequence": "EASNCFAIRHFENKFAVETLICVARMEHRLGFWR", "amyloid nucleation score": "inactive"}, {"sequence": "EASNCFAIRHFENKFAVETLICLSLVDCMMSNGW", "amyloid nucleation score": "inactive"}, {"sequence": "EASNCFAIRHFENKFAVETLICDRLVEAWAWTGG", "amyloid nucleation score": "inactive"}, {"sequence": "EASNCFAIRHFENKFAVETLICAVRHRKGNEAKW", "amyloid nucleation score": "inactive"}, {"sequence": "EASNCFAIRHFENKFAVETLICVITWKRRLIE", "amyloid nucleation score": "inactive"}, {"sequence": "EASNCFAIRHFENKFAVETLICRTEATESQGK", "amyloid nucleation score": "inactive"}, {"sequence": "EASNCFAIRHFENKFAVETLICFATRFGVGSI", "amyloid nucleation score": 3.86}, {"sequence": "EASNCFAIRHFENKFAVETLICKVSV", "amyloid nucleation score": "inactive"}, {"sequence": "EASNCFAIRHFENKFAVETLICWRSEWQLRWEPV", "amyloid nucleation score": 2.11}, {"sequence": "EASNCFAIRHFENKFAVETLICECAIGVRLVYQR", "amyloid nucleation score": "inactive"}, {"sequence": "EASNCFAIRHFENKFAVETLICFNPLCWWKLLSG", "amyloid nucleation score": 7.37}, {"sequence": "EASNCFAIRHFENKFAVETLICWASQPSSSRQWT", "amyloid nucleation score": "inactive"}, {"sequence": "EASNCFAIRHFENKFAVETLICCSRGRLK", "amyloid nucleation score": 1.39}, {"sequence": "EASNCFAIRHFENKFAVETLICGIHWVSVGEPGG", "amyloid nucleation score": 2.44}]}]}
